# Measurements from PMC12136788.
# This is one part of the list.
# B1: chr1:193046084:193046085:+_ENSG00000116747_ENST00000432079|hu_hu|motif|central (ssRNA)
# RNA: GGGAGUUCUACAGUCCGACGAUCUUCAUCAGGGCGCCACUUCAGUUUCCCUCUGAGACCAUGACCUGUCUUGUAAGUUUCGGAUGCGAUCAAAAUAUGAAAUGGAUGUAUACGAGCCUUUUUUAAUAGUUUUUCAUUACACAGCAACAGAGGAUUGAGCAUCA
# B2: chr22:38894135:38894136:-_ENSG00000100201_ENST00000396821|hu_mus|motif|central (ssRNA)
# RNA: GGGAGUUCUACAGUCCGACGAUCAUAAUCGUCAGCCACCUGCUGCACCUGCUGCGCAAGCUCUCUGGUAGGAGCCAGCACGGGACAAAUUGGACCAUCUCCUCUUUCCAAGUAUGGCUGGUGGUUUAUAUGAACAAUCGCAGGCAACAGAGGAUUGAGCAUCA
# B3: chrX:7458662:7458663:+_ENSMUSG00000031155_ENSMUST00000033495|mus_hu|FALSE|FALSE (ssRNA)
# RNA: GGGAGUUCUACAGUCCGACGAUCAAGCAGGGCACCAGAACCAAAAUCAAUGAGUUUGGCACAGCCACGGCGUAGGUCUAUCAGGAUGUUCUCAUCCUUGAUGUCACGAUGGACAACUCCACGGGAAUGGCAGUGCUGGAUGGCCAACAGAGGAUUGAGCAUCA
# B4: chr8:74858975:74858976:-_ENSG00000154582_ENST00000284811|hu_mus|hu_hu_hu_mus_True|68_108 (ssRNA)
# RNA: GGGAGUUCUACAGUCCGACGAUCGACCUUGUACGUAAAAUACAUGCACACUUUUGAUAGCACAUGUGAAGGUAUCUCUCUAAAAUUGACCUCGUUGGUUUCAUUCUCAGCAAACUGACCUGGACCACUCAACAUAGCCUUUAUCAACAGAGGAUUGAGCAUCA
# B5: 20409568_20409688_309_3pUTR_ENSG00000185238_ENST00000331079|human|control|control (ssRNA)
# RNA: GGGAGUUCUACAGUCCGACGAUCAGGCAGGGGGUCUGCUGCUUGCCGUGGGGGAGAUCUGCAUCGUCCUCAUCCUCCCAGGCGGCCUCGUCCCCGCUGUCCGACAGUUCUGGCAGGUCCUCCUCAUUCUCCACAGCGCCCCGGCAACAGAGGAUUGAGCAUCA
# B6: chr8:104447970:104447971:+_ENSG00000164934_ENST00000297579|hu_hu|hu_hu_hu_mus_False|48_108 (ssRNA)
# RNA: GGGAGUUCUACAGUCCGACGAUCAUAUACCUCCCUGCUUCGGCUCUUGUCCACAGGAAAGAUUCUAAUAGACUUAUCAAAGCUGGCAGACACAAACUCCUUCCCAGUGGGAGAGUAGUCCACAUCAAGUACUGCAGACACGUGCAACAGAGGAUUGAGCAUCA
# B7: chr21:34924380:34924381:+_ENSG00000159140_ENST00000381679|hu_mus|motif|central (ssRNA)
# RNA: GGGAGUUCUACAGUCCGACGAUCCCUAGGUGAUACCCUAUAGGGAUCCGGAGUUAGUCUGUAGGGAUCAUGGCCGGAUCGGUAAGGGUCUUGUCCUAACCUGUAAGCAUCAUGGCCUAACCUGUAGGGGUCAUGACCCAACCUCAACAGAGGAUUGAGCAUCA
# B8: chr1:231488893:231488894:+_ENSG00000010072_ENST00000295050|hu_hu|motif|central (ssRNA)
# RNA: GGGAGUUCUACAGUCCGACGAUCAUUAACCAUUUUGCUCUGACUGGAUGAACUGCUGGAAUUCUGAGCUGUGGUUGUACGGUACUUUGGAUCAUUACCACUGCUUUUUAUUUGCUCUUUCUUGAUAAAAAAAUUGUCAAAAACCAACAGAGGAUUGAGCAUCA
# B9: chr14:102233281:102233282:+_ENSG00000078304_ENST00000556260|hu_hu|FALSE|FALSE (ssRNA)
# RNA: GGGAGUUCUACAGUCCGACGAUCACUUCUAAAAAUGUAACAUUGGACACAGUACACACACUUAAAAGAAACAACACCCACCUAUGGUCUGAUCUUACAAAAUGGACUUGAGGAAACUCAGAGCAAUUUAUUAACAUUCUAAAUCAACAGAGGAUUGAGCAUCA
# B10: chr17:30526466:30526467:+_ENSG00000126858_ENST00000394692|hu_hu|FALSE|FALSE (ssRNA)
# RNA: GGGAGUUCUACAGUCCGACGAUCGUAAGGGAAAACUUUAAAUAAAUCUUUAAGCUCAUCAGGUGACAAAGCACAGUCUCUAUCCAAAUCAUGCUUGUCAAAGGUGCUUUGGAGAAAUAAAUAUGCAUGAUGAUUUAAUUCAGUCAACAGAGGAUUGAGCAUCA
# B11: chr11:98549071:98549072:+_ENSMUSG00000017221_ENSMUST00000017365|mus_hu|FALSE|FALSE (ssRNA)
# RNA: GGGAGUUCUACAGUCCGACGAUCAUCCAGCUUGUCCAGGAACUCAUAGACCCGGGCGUGAUAAUAGUAACACUUUGCGGCUACAAGGUCUAGGGCCCGGCGGUUCUGAGUACUGAUCUUCUGCAUCAGAUCAUCAGAGAUCUUCAACAGAGGAUUGAGCAUCA
# B12: chr6:74354288:74354289:-_ENSG00000119899_ENST00000355773|hu_mus|motif|central (ssRNA)
# RNA: GGGAGUUCUACAGUCCGACGAUCACUCAGGUUCACCCGUAAGGCAUAGAGAACGAAGAAACCACAGAACGCCAAAAUCGCGGAGUUGUACCGAGCAGAGCAGCACACUGGAGCCGCUUCGGUCUGCCGGGCGCCCGGCAGGAGCAACAGAGGAUUGAGCAUCA
# B13: 82834144_82834264_2777_CDS_ENSG00000038427_ENST00000343200|human|control|control (ssRNA)
# RNA: GGGAGUUCUACAGUCCGACGAUCUUGAUGGAUACUGCUGUGCUCAGUGGUCUGUGCCCCCAAAUUUUCUAAUGUAUUUGUUUCUGUAAAGACAGGAGUAGAAUCUGUCAUUUCCCUUUCAGACUGUGUUGGUGUUGUCAAGGACAACAGAGGAUUGAGCAUCA
# B14: 36390580_36390700_8219_3pUTR_ENSG00000092847_ENST00000373204|human|control|control (ssRNA)
# RNA: GGGAGUUCUACAGUCCGACGAUCCAAAGAAACAAAAAACCCACAAACUGUCUACCAGUGAUCUGUCACCUUAAGAUCUGCUUCCUCCCCCGAACCUUUAAAUUGAGUUUCUUAGGGGGCUGUAUACUAGUUUCUCUUCUCUUUCAACAGAGGAUUGAGCAUCA
# B15: chr4:95690885:95690886:+_ENSMUSG00000028572_ENSMUST00000156910|mus_mus|mus_mus_mus_hu_False|8_68 (ssRNA)
# RNA: GGGAGUUCUACAGUCCGACGAUCUUUAGAAAAUGUUAAAUACCAUGCUAAAAUAUUUUCAAAGGCUAGUCUUAUUUUACCAGAAGUCACAGGCAAGCAGACACUACAAGAAUAUAUGAAAAUGAAACAACAGUGUAUAACUGUCAACAGAGGAUUGAGCAUCA
# B16: chr1:25167287:25167288:+_ENSG00000169504_ENST00000374379|hu_mus|FALSE|FALSE (ssRNA)
# RNA: GGGAGUUCUACAGUCCGACGAUCGCUGUAGGCGUUUGUCAGGUACCUCCAGAUGCCUGUCAUUCCUUUAGGAAUAUCAAAGUUGCGGUAUUUUUUGGCCACCACCUUGACAAUGUGGAGCUUGGGCAGCAGGUUACAGUCUGCCAACAGAGGAUUGAGCAUCA
# B17: chr8:117868997:117868998:-_ENSG00000164754_ENST00000297338|hu_mus|FALSE|FALSE (ssRNA)
# RNA: GGGAGUUCUACAGUCCGACGAUCGACCCCUGCCUCAGACAAGGCAGGGGGAUCGUCAAAGAUGCCACCAUCAUUAUUACUUAUAAGUUUGUCAUCUAAUAUACCGCCAUCAUUUCCUUCUCCAAAAUUGUCAUCUUUGUACUGCAACAGAGGAUUGAGCAUCA
# B18: 36021594_36021714_1036_CDS_ENSMUSG00000022905_ENSMUST00000004054|mouse|control|control (ssRNA)
# RNA: GGGAGUUCUACAGUCCGACGAUCCCUGCAGACUCCUGCAUCGAUGACUGCUUGGAUUUUAUCAUUGGGUCCAUCUGACAGGUAUGAGAGAGCCCAGCAAGCAUCAGCUAGUACAUCAGUGUCACUGACAAACAGUAACCAAGACAACAGAGGAUUGAGCAUCA
# B19: chr2:169020305:169020306:-_ENSG00000198648_ENST00000355999|hu_mus|FALSE|FALSE (ssRNA)
# RNA: GGGAGUUCUACAGUCCGACGAUCCUGACCGUUUCUGUGCAGAUAGUCUAAACCUUCCAAAACCUCCUUAAGAAUUGUUGCAAUUAUCGCCUCUUCUAGGACACCAUUUUUAUGUUCUCCUCGAUUAACGAUGUAUUUGAUGAUCAACAGAGGAUUGAGCAUCA
# B20: 38065953_38066073_6562_3pUTR_ENSMUSG00000021427_ENSMUST00000021864|mouse|control|control (ssRNA)
# RNA: GGGAGUUCUACAGUCCGACGAUCCUUCCUACCUUUUCCCUUCUGUACUGGGGACUGAGCCUAGCGCACCCACGCUAGUCACCCACACACACUUAGCACUUUUACUCUUCUUCCAAGAAAGAACUGUCCUUGCAUAGUUAGUGGCAACAGAGGAUUGAGCAUCA
# B21: chr1:243289802:243289803:-_ENSG00000143702_ENST00000366542|hu_mus|motif|central (ssRNA)
# RNA: GGGAGUUCUACAGUCCGACGAUCAAGGAAACGUCAUUCGUGUACUGUAACAUCCUCCUCUUCCCCAUCAGGGUUGAACCGGUUGAAAUGGAUACUGAAAUCAGCCUCAGAUUCAGCAUUCUCAAACUCAGUGGAGGCUGCUGCCAACAGAGGAUUGAGCAUCA
# B22: chr12:60073987:60073988:-_ENSMUSG00000020986_ENSMUST00000021375|perfect_dup|motif|central (ssRNA)
# RNA: GGGAGUUCUACAGUCCGACGAUCCUGGGUCAGAUCUUGACGCAUAAAAUGGUGACGAUAAUAUGAACUCUCAUCAGGACGGUUGUUAAAAACUUGCAGGAAAGAAGAUCUUCUUAAAUGAAACAUAAACUGUGGAUAAAGGGACAACAGAGGAUUGAGCAUCA
# Biological target: T1, UNK ZnF1-3 (human, UniProt Q9C0B0 31-174)
# T1 sequence: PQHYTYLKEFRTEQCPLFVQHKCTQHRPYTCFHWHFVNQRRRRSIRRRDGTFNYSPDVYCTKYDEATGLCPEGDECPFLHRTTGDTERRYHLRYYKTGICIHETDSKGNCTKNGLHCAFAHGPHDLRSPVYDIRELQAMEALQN
# Assay: nsRBNS (natural sequence RNA bind-n-seq); RBNS binding buffer (assumed for nsRBNS): 25 mM Tris pH 7.5, 150 mM KCl, 3 mM MgCl2, 0.01% Triton X-100, 500 ug/ml BSA, 20 U/ml SUPERase-In, 4 C; UNK is unkempt and MSI1 is Musashi-1; names of the RNAs are library labels; protein concentration not given here; high values mean tight binding
row,Binder,binding signal
1,B1,1.34 enrichment R
2,B2,0.905 enrichment R
3,B3,1.17 enrichment R
4,B4,0.762 enrichment R
5,B5,1.28 enrichment R
6,B6,1 enrichment R
7,B7,0.334 enrichment R
8,B8,0.728 enrichment R
9,B9,1.87 enrichment R
10,B10,0.944 enrichment R
11,B11,0.693 enrichment R
12,B12,1.11 enrichment R
13,B13,0.784 enrichment R
14,B14,0.817 enrichment R
15,B15,1.5 enrichment R
16,B16,0.901 enrichment R
17,B17,1.36 enrichment R
18,B18,1.04 enrichment R
19,B19,0.647 enrichment R
20,B20,0.808 enrichment R
21,B21,0.662 enrichment R
22,B22,1.44 enrichment R
